# Sequences with one replicate were seen in a single cluster, so their values are uncertain.
# Tested on: ATP
# Assay: switch fluorescence ratio, 500 uM ATP over buffer (Cy3 cluster intensity, sum of 5 cycles each) (fold (ratio)); higher = stronger signal-on switching upon ATP binding; sequences stand for … in TCGTCGGCAGCGTCAGATGTGTATAAGAGACAGTTTTTTTTTTTTTTTTTTTTTTTTT…TC
# Conditions: aptamer strand: ATP DNA aptamer (quencher-CACCTGGGGGAGTATTGCGGAGGAAGG + anchor), 100 nM annealed; ATP concentration: 500 uM; one replicate
# In short: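 Between each of five buffer/ATP cycles, the flow-cell was stripped with NaOH and re-annealed. Each cycle imaged Cy3-labelled switching-strand clusters, annealed to 100 nM quencher-labelled ATP aptamer on a modified Illumina MiSeq flow-cell, first in selection buffer and then after 15 min with 500 uM ATP at 22 °C. The fluorescence ratio is summed target-cycle over summed buffer-cycle Cy3 intensity per cluster, averaged per switch-domain sequence, with clusters outside 100-1000 RFU excluded.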
# 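Also: ATP exposure 15 min at 22 °C before imaging.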
row,Sequence,switch fluorescence ratio
1,CCCAGCCGCG,1.18
2,CCCAGTCGTA,1
3,CCCATCAACA,0.994
4,CCCATCATGA,0.979
5,CCCATGACGT,0.988
6,CCCATGAGTC,1.09
7,CCCATGATCG,0.969
8,CCCATGCTCC,1.68
9,CCCATGGCGG,1.04
10,CCCATGTCC,1.04
11,CCCATTAAAC,1.09
12,CCCATTTACG,1.09
13,CCCCAATCA,1.47
14,CCCCATCGGC,1.07
15,CCCCCAATAT,1.21
16,CCCCCACAGT,2.13
17,CCCCCATGCT,1.9
18,CCCCCTCTCC,1.75
19,CCCCCTGAAC,1.67
20,CCCCCTGTGT,2.83
21,CCCCGGAACT,1.74
22,CCCCGGATGT,1.75
23,CCCCGTGGTT,1.4
24,CCCCGTTTGT,1.26
25,CCCCTAGGCT,1.42
26,CCCCTATG,1.09

row,Sequence,switch fluorescence ratio
1,CCCCTCATCG,1
2,CCCCTGAGAC,1.56
3,CCCCTTGGAC,1.05
4,CCCCTTGGTT,1.36
5,CCCCTTTCTA,0.981
6,CCCGAAGAGT,1.8
7,CCCGAGATCA,1.62
8,CCCGCCAAGA,3.06
9,CCCGCGCGTG,1.04
10,CCCGCGGTTG,1.21
11,CCCGCTGTCT,1.07
12,CCCGCTTCTA,1.29
13,CCCGCTTTTG,1.13
14,CCCGGATGGA,0.973
15,CCCGGCAGGT,1.1
16,CCCGGCAGTG,1.34
17,CCCGGCGGTT,4.29
18,CCCGGGCAGA,0.99
19,CCCGGGCATG,1.03
20,CCCGGT,1
21,CCCGGTACAT,1.03
22,CCCGTAACTC,2.54
23,CCCGTCCTAT,1.03
24,CCCGTGCCTG,1.11
25,CCCGTTGGGC,1.07
26,CCCGTTTAGC,1.1

row,Sequence,switch fluorescence ratio
1,CCCTAGGGCT,1.03
2,CCCTATCAG,1.02
3,CCCTGATCAT,0.982
4,CCCTGATGAA,1.01
5,CCCTGGCAGA,1.11
6,CCCTGTGAGA,1.02
7,CCCTGTTGGT,0.955
8,CCCTTAATGG,1.03
9,CCCTTCCCG,1.51
10,CCCTTGAATC,1
11,CCCTTGCTGC,1.33
12,CCCTTGGATT,1.04
13,CCCTTGGCTT,1.03
14,CCCTTTAAGT,0.994
15,CCCTTTCGAT,1.05
16,CCCTTTTAGG,0.964
17,CCGAAAATAA,1.14
18,CCGAAAGGTT,1.13
19,CCGAAGACAT,2.94
20,CCGAAGGGCA,1.08
21,CCGAATTCCG,1.07
22,CCGACGGGGG,1.28
23,CCGACTAATT,2.16
24,CCGACTGATT,4.45
25,CCGAGAATTA,1.29
26,CCGAGAGCCT,1.98

row,Sequence,switch fluorescence ratio
1,CCGAGCCCTT,1.68
2,CCGAGGTCTT,1.37
3,CCGAGTCGGT,1.03
4,CCGAGTGATC,4.27
5,CCGAGTTTT,1.05
6,CCGATAAAAT,1.37
7,CCGATACTAA,1.24
8,CCGATCACCA,1.12
9,CCGATCAGAT,1.39
10,CCGATGAGT,0.951
11,CCGATGTACG,1.18
12,CCGATTCAGA,1.35
13,CCGATTTGCG,1.06
14,CCGCACCCGT,3.7
15,CCGCACTTA,3.8
16,CCGCACTTTT,2.05
17,CCGCAGCCGT,2.48
18,CCGCATAGAA,2.87
19,CCGCCACATT,2.04
20,CCGCCTGTTT,1.13
21,CCGCGATAGA,1.58
22,CCGCGCCTTG,1.25
23,CCGCGCTATG,2.5
24,CCGCGGGTAG,1.14
25,CCGCGTCCGT,1.35
26,CCGCGTGGTG,1.06

row,Sequence,switch fluorescence ratio
1,CCGCTACCCC,1.07
2,CCGCTAGTTT,1.28
3,CCGCTCTCGG,1.1
4,CCGCTCTGCT,1.38
5,CCGCTGGACC,3.12
6,CCGCTGTGGC,2.19
7,CCGGAAATAA,1.04
8,CCGGAATTGT,1.1
9,CCGGACGGCA,1.07
10,CCGGATGAGG,0.987
11,CCGGATGATA,1.06
12,CCGGATTATT,1.08
13,CCGGCACGTA,1.08
14,CCGGCATTCG,1.16
15,CCGGCCTGGG,1.05
16,CCGGCGACCT,1.23
17,CCGGCGCTTG,1.7
18,CCGGCGTTGG,1.08
19,CCGGCTGAAT,1.03
20,CCGGGATACC,3.38
21,CCGGGATC,2.55
22,CCGGGCGGGC,1.54
23,CCGGGCTTCG,1.05
24,CCGGGGATTA,1.05
25,CCGGGGATTT,1.08
26,CCGGGTGGGA,1.03

row,Sequence,switch fluorescence ratio
1,CCGGGTTGCG,1.05
2,CCGGT,0.998
3,CCGGTAAACC,1.06
4,CCGGTCTCCT,1.08
5,CCGGTTCAGC,1.09
6,CCGGTTCTTA,1.01
7,CCGGTTGTA,1.11
8,CCGTAGGTCT,1.07
9,CCGTAGTATT,4.75
10,CCGTATCAAA,1.17
11,CCGTCACCTA,1.12
12,CCGTCCCTAC,4.63
13,CCGTCGATCG,1.01
14,CCGTCGGGGA,1.07
15,CCGTCGTATG,1.02
16,CCGTGAGGAC,1.16
17,CCGTGATATT,2.54
18,CCGTGCATTA,4.33
19,CCGTGGGGG,1
20,CCGTGGTGGT,1.06
21,CCGTTAAAGT,1.03
22,CCGTTACGTG,1.07
23,CCGTTAGTAT,1.13
24,CCGTTATTGC,2.24
